Experimental data as given in the supplement of paper PMC3334620.
The full ranking holds about 33,000 sequences; the median of “E-score (-0.5 to 0.5)” is about -0.04, and the highest 2% start at about 0.36. This is one part of the list.

target: T1, Hmlalpha2 (UniProt P0CY09); experiment: PBM E-score (8-mer binding enrichment) (E-score (-0.5 to 0.5)); higher = stronger / more preferred TF binding; most listed sequences are background and not binding sites; settings: protein concentration: 200 nM; construct: GST-full length
T1 sequence: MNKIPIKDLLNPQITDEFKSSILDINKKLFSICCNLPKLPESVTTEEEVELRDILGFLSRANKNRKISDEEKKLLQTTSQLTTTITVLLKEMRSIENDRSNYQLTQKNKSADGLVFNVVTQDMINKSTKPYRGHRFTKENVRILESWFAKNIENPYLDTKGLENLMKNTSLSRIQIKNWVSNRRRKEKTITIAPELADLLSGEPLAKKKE
Outline: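 Masliner-normalised scans of fluorescent anti-GST signal were the basis for scoring. That signal came from GST-tagged yeast transcription factors applied at about 100-200 nM to double-stranded universal all-10-mer Agilent arrays on fresh or once-stripped slides. Each ungapped eight-base word, pooled with its reverse complement, received an E-score from the Universal PBM Analysis Suite.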

Row | Sequence | PBM E-score
1 | CTAAACTC | -0.0225
2 | AGATTACT | 0.141
3 | AGAAGACG | -0.0512
4 | GAACAACA | 0.239
5 | CACTCAAA | 0.00366
6 | CGGGCAGA | 0.0372
7 | CAGTGCGG | -0.125
8 | CTTTCTAC | 0.245
9 | ATATCAGC | -0.119
10 | GGGCAATA | -0.237
11 | TGAATGAA | 0.0279
12 | CGACTTTA | 0.134
13 | AAAGACGG | -0.227
14 | AACGTGTA | 0.455
15 | GCGGTGTA | 0.222
16 | CTAGAAAG | -0.0836
17 | AGATACCT | -0.163
18 | AGCTCAGA | -0.0902
19 | CAGGTTCC | -0.138
20 | GGTCTTAC | 0.0512
21 | ACTTGGCC | -0.124
22 | CACCCCGC | -0.109

Row | Sequence | PBM E-score
23 | ATACAGCC | -0.0205
24 | AATATGGA | 0.119
25 | ACGCACCT | 0.0854
26 | CCATACCA | -0.0331
27 | ATGGACCG | -0.189
28 | CTTGTGAC | -0.0579
29 | ATTGAGGC | -0.0568
30 | CATGGTTC | 0.162
31 | CATCAATC | 0.0514
32 | GAGGAACC | -0.191
33 | AGTGTGTG | 0.127
34 | CGCCTTCA | -0.271
35 | AACTGGAA | -0.0939
36 | CCGCTTGC | -0.212
37 | GGAAGGTA | -0.132
38 | GAGTAACC | -0.00081
39 | GAGGGGCA | -0.203
40 | CTGTATGC | 0.00068
41 | GAAAGATC | -0.206
42 | GGGGGGAA | -0.432
43 | AGTGCTAT | -0.151
44 | CAATGAGG | -0.137

Row | Sequence | PBM E-score
45 | CAATAGGC | -0.157
46 | AAGGCGCA | -0.00403
47 | AGAGAAAC | 0.106
48 | CCAATGCA | -0.0576
49 | GCGAGAAA | -0.0173
50 | GTGACTGA | 0.111
51 | AACCGGCC | -0.197
52 | GTAAACGA | 0.283
53 | AGAACCCC | -0.313
54 | TAACGTCA | 0.137
55 | CTGGGGCA | -0.324
56 | GGGATTCA | -0.145
57 | AACTTCAT | 0.0469
58 | TGTATGAA | 0.181
59 | CCTGTTCG | 0.0463
60 | CTCGTATA | 0.114
61 | AAAAGTAA | 0.233
62 | ACTGCCTA | 0.0425
63 | CCACCTCG | -0.216
64 | CGATAGCC | -0.128
65 | CACGACGG | 0.192
66 | CCGAAAGG | -0.206

Row | Sequence | PBM E-score
67 | ACATCCAG | 0.192
68 | AGGTGAAT | 0.118
69 | ATTGAACG | 0.218
70 | ATCGTTGC | 0.0181
71 | CTGGTAAA | 0.143
72 | GCTATCCC | -0.207
73 | ACGCTTTG | -0.0226
74 | AGGACCAG | -0.158
75 | ATCACGAG | -0.0914
76 | AAGCAAAT | 0.203
77 | CAGCCTAG | -0.165
78 | AGCGTAAG | -0.106
79 | AGCCGCCT | -0.297
80 | GGCACAGA | -0.245
81 | CGCGGACG | -0.145
82 | ACTCTGAT | -0.0492
83 | ACTGGCGC | -0.0623
84 | CCCTTCTA | -0.0409
85 | GCAGCGAC | -0.107
86 | GGTTGCCA | -0.0907
